Source: patent US20160176973A1 (published 2016)

Legend:
Experiment in all cases: SPR (Biacore)
BCMA 102 x CD3 = molecular target: BCMA 102 x CD3
BCMA 101 x CD3 = molecular target: BCMA 101 x CD3
BC 247-C3 x CD3 = molecular target: BC 247-C3 x CD3
BCMA-107 x CD3 = molecular target: BCMA-107 x CD3

B1: Macaque BCMA (receptor)
chain (part 1 of 2): [about 60 residues omitted]NASGGGGSEAHKSEIAHRYNDLGEQHFKGLVLIAFSQYLQKCSYDEHAKLVQEVTDFAKTCVADESAANCDKSLHTLFGDKLCAIPNLRENYGELADCCTKQEPERNECFLQHKDDNPSLPPFERPEAEAMCTSFKENPTTFMGHYLHEVARRHPYFYAPELLYYAEQYNEILTQCCAEADKESCLTPKLDGVKEKALVSSVRQRMKCSSMQKFGERAFKAWAVARLSQTFPNADFAEITKLATDLTKVNKECCHGDLLECADDRAELAKYMCENQATISSKLQTCCDKPLLKKAHCLSEVEHDTMPADLPAIAADFVEDQEVCKNYAEAKDVFLGTFLYEYSRRHPDYSVSLLLRLAKKYEATLEKCCAEANPPACYGTVLAEFQPLVEEPKNLVKTNCDLYEKLGEYGFQNAILVRYTQKAPQVSTPTLVEAARNLGRVGTKCCTLPEDQRLPCVEDYLSAILNRVCLLHEKTPVSEHVTKCCSGSLVERRPCFSALTVDETYVPKEFKAETFTFHSDICTLPEKEKQIKKQTALAELVKHKPKATAEQLKTVMDDFAQFLDTCCKAADKDTCFSTEGPNLVTRCKDALA
chain (part 2 of 2): SGHHGGHHGGHH
In the case of B1, the Kd (BCMA 102 x CD3) is reported as 0.3 nM, the Kd (BCMA 101 x CD3) is reported as 0.8 nM and the Kd (BC 247-C3 x CD3) is reported as 0.6 nM. The Kd (BCMA-107 x CD3) was 11.7 nM.
